In article PMC9911399, “Two distinct binding modes provide the RNA-binding protein RbFox with extraordinary sequence specificity”:
Positions count from the first letter of the chain named. The list shows a part of the results.

B1: AAAAAAC (DNA:RNA)
RNA: GGGAGACCGGAAUUCAGAUUGUCCAAAAAACUUAAAUCCCGUCGUAGCCACCA
DNA 1: CAATCTGAATTCCGGTCTCCC
DNA 2: TGGTGGCTACGACGGGATT
B2: AGGAAUA (DNA:RNA)
RNA: B1 RNA with A26G, A27G, A30U, C31A
DNA 1: CAATCTGAATTCCGGTCTCCC
DNA 2: TGGTGGCTACGACGGGATT
B3: AAUGCGU (DNA:RNA)
RNA: B1 RNA with A27U, A28G, A29C, A30G, C31U
DNA 1: CAATCTGAATTCCGGTCTCCC
DNA 2: TGGTGGCTACGACGGGATT
B4: GUGACCU (DNA:RNA)
RNA: B1 RNA with A25G, A26U, A27G, A29C, A30C, C31U
DNA 1: CAATCTGAATTCCGGTCTCCC
DNA 2: TGGTGGCTACGACGGGATT
B5: GGAGGGG (DNA:RNA)
RNA: B1 RNA with A25G, A26G, A28G, A29G, A30G, C31G
DNA 1: CAATCTGAATTCCGGTCTCCC
DNA 2: TGGTGGCTACGACGGGATT
B6: CGACAUG (DNA:RNA)
RNA: B1 RNA with A25C, A26G, A28C, A30U, C31G
DNA 1: CAATCTGAATTCCGGTCTCCC
DNA 2: TGGTGGCTACGACGGGATT
B7: AAACCCA (DNA:RNA)
RNA: B1 RNA with A28C, A29C, A30C, C31A
DNA 1: CAATCTGAATTCCGGTCTCCC
DNA 2: TGGTGGCTACGACGGGATT
B8: UUGAAGU (DNA:RNA)
RNA: B1 RNA with A25U, A26U, A27G, A30G, C31U
DNA 1: CAATCTGAATTCCGGTCTCCC
DNA 2: TGGTGGCTACGACGGGATT
B9: CGUGGUG (DNA:RNA)
RNA: GGGAGACCGGAAUUCAGAUUGUCCCGUGGUGUUAAAUCCCGUCGUAGCCACCA
DNA 1: CAATCTGAATTCCGGTCTCCC
DNA 2: TGGTGGCTACGACGGGATT
B10: GGCCUAG (DNA:RNA)
RNA: B9 RNA with C25G, U27C, G28C, G29U, U30A
DNA 1: CAATCTGAATTCCGGTCTCCC
DNA 2: TGGTGGCTACGACGGGATT
B11: AGUGGUA (DNA:RNA)
RNA: B9 RNA with C25A, G31A
DNA 1: CAATCTGAATTCCGGTCTCCC
DNA 2: TGGTGGCTACGACGGGATT
B12: AGAGGCA (DNA:RNA)
RNA: B9 RNA with C25A, U27A, U30C, G31A
DNA 1: CAATCTGAATTCCGGTCTCCC
DNA 2: TGGTGGCTACGACGGGATT
B13: AAGAACG (DNA:RNA)
RNA: B1 RNA with A27G, A30C, C31G
DNA 1: CAATCTGAATTCCGGTCTCCC
DNA 2: TGGTGGCTACGACGGGATT
B14: AUCUGGA (DNA:RNA)
RNA: B1 RNA with A26U, A27C, A28U, A29G, A30G, C31A
DNA 1: CAATCTGAATTCCGGTCTCCC
DNA 2: TGGTGGCTACGACGGGATT
B15: GGUGCCA (DNA:RNA)
RNA: B9 RNA with C25G, G29C, U30C, G31A
DNA 1: CAATCTGAATTCCGGTCTCCC
DNA 2: TGGTGGCTACGACGGGATT
B16: UACCUUC (DNA:RNA)
RNA: B1 RNA with A25U, A27C, A28C, A29U, A30U
DNA 1: CAATCTGAATTCCGGTCTCCC
DNA 2: TGGTGGCTACGACGGGATT
B17: CUUGGCA (DNA:RNA)
RNA: B9 RNA with G26U, U30C, G31A
DNA 1: CAATCTGAATTCCGGTCTCCC
DNA 2: TGGTGGCTACGACGGGATT
B18: CACCCGA (DNA:RNA)
RNA: B1 RNA with A25C, A27C, A28C, A29C, A30G, C31A
DNA 1: CAATCTGAATTCCGGTCTCCC
DNA 2: TGGTGGCTACGACGGGATT
B19: GGGGAAC (DNA:RNA)
RNA: B1 RNA with A25G, A26G, A27G, A28G
DNA 1: CAATCTGAATTCCGGTCTCCC
DNA 2: TGGTGGCTACGACGGGATT
B20: ACUAUGC (DNA:RNA)
RNA: B1 RNA with A26C, A27U, A29U, A30G
DNA 1: CAATCTGAATTCCGGTCTCCC
DNA 2: TGGTGGCTACGACGGGATT
B21: UACACGU (DNA:RNA)
RNA: B1 RNA with A25U, A27C, A29C, A30G, C31U
DNA 1: CAATCTGAATTCCGGTCTCCC
DNA 2: TGGTGGCTACGACGGGATT
B22: CAUAAGC (DNA:RNA)
RNA: B1 RNA with A25C, A27U, A30G
DNA 1: CAATCTGAATTCCGGTCTCCC
DNA 2: TGGTGGCTACGACGGGATT
B23: CCGGGCA (DNA:RNA)
RNA: B9 RNA with G26C, U27G, U30C, G31A
DNA 1: CAATCTGAATTCCGGTCTCCC
DNA 2: TGGTGGCTACGACGGGATT
B24: CUUCGCC (DNA:RNA)
RNA: B9 RNA with G26U, G28C, U30C, G31C
DNA 1: CAATCTGAATTCCGGTCTCCC
DNA 2: TGGTGGCTACGACGGGATT
B25: GUCUCGG (DNA:RNA)
RNA: B9 RNA with C25G, G26U, U27C, G28U, G29C, U30G
DNA 1: CAATCTGAATTCCGGTCTCCC
DNA 2: TGGTGGCTACGACGGGATT
B26: CCAUAGG (DNA:RNA)
RNA: B1 RNA with A25C, A26C, A28U, A30G, C31G
DNA 1: CAATCTGAATTCCGGTCTCCC
DNA 2: TGGTGGCTACGACGGGATT
B27: UUCUUUC (DNA:RNA)
RNA: B1 RNA with A25U, A26U, A27C, A28U, A29U, A30U
DNA 1: CAATCTGAATTCCGGTCTCCC
DNA 2: TGGTGGCTACGACGGGATT
B28: GUUGGCC (DNA:RNA)
RNA: B9 RNA with C25G, G26U, U30C, G31C
DNA 1: CAATCTGAATTCCGGTCTCCC
DNA 2: TGGTGGCTACGACGGGATT
B29: CAUCGUA (DNA:RNA)
RNA: B9 RNA with G26A, G28C, G31A
DNA 1: CAATCTGAATTCCGGTCTCCC
DNA 2: TGGTGGCTACGACGGGATT
B30: GGCCUGU (DNA:RNA)
RNA: B9 RNA with C25G, U27C, G28C, G29U, U30G, G31U
DNA 1: CAATCTGAATTCCGGTCTCCC
DNA 2: TGGTGGCTACGACGGGATT
B31: UACGAGU (DNA:RNA)
RNA: B1 RNA with A25U, A27C, A28G, A30G, C31U
DNA 1: CAATCTGAATTCCGGTCTCCC
DNA 2: TGGTGGCTACGACGGGATT

biological target: T1, RBFOX1 RRM (Homo sapiens, UniProt Q9NWB1 109-208); test: EMSA; HiTS-Eq, 1 nM pool, 10 min; buffer printed only for the single-RNA assays: 10 mM Tris pH 7.5, 150 mM NaCl, 3.4 mM EDTA, 0.001% NP-40, 30 C; conditions: tags: His6 N-terminal (pET28a); label: 5' 32P
T1 sequence: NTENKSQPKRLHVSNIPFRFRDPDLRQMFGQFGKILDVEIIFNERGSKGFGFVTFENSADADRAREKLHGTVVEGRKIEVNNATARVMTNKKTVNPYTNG
Procedure, shortened: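 Relative association constants, normalised to the cognate motif, were derived by comparing read counts of each RNA species with those of the control reaction. The RNA sequenced was the free fraction, separated by 8% native PAGE after a 10 min equilibration in 50 µL of 1 nM 5′-radiolabelled RNA (7 randomized nucleotides) with increasing concentrations of purified wild-type or mutant RbFox RRM.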

In order of falling binding signal:
1. B19  0.0298 KA relative to UGCAUGU
2. B30  0.0238 KA relative to UGCAUGU
3. B28  0.0228 KA relative to UGCAUGU
4. B9  0.0193 KA relative to UGCAUGU
5. B5  0.0168 KA relative to UGCAUGU
6. B27  0.016 KA relative to UGCAUGU
7. B17  0.0156 KA relative to UGCAUGU
8. B8  0.015 KA relative to UGCAUGU
9. B6  0.0148 KA relative to UGCAUGU
10. B11  0.0144 KA relative to UGCAUGU
11. B12  0.0128 KA relative to UGCAUGU
12. B4  0.0126 KA relative to UGCAUGU
13. B15  0.0125 KA relative to UGCAUGU
14. B23  0.0121 KA relative to UGCAUGU
15. B31  0.0118 KA relative to UGCAUGU
16. B2  0.0109 KA relative to UGCAUGU
17. B3  0.00977 KA relative to UGCAUGU
18. B24  0.00932 KA relative to UGCAUGU
19. B20  0.00897 KA relative to UGCAUGU
20. B16  0.00895 KA relative to UGCAUGU
21. B13  0.00869 KA relative to UGCAUGU
22. B25  0.00815 KA relative to UGCAUGU
23. B26  0.00778 KA relative to UGCAUGU
24. B21  0.00625 KA relative to UGCAUGU
25. B10  0.00388 KA relative to UGCAUGU
26. B29  0.00357 KA relative to UGCAUGU
27. B14  0.00328 KA relative to UGCAUGU
28. B18  0.00311 KA relative to UGCAUGU
29. B22  0.00212 KA relative to UGCAUGU
30. B7  0.00147 KA relative to UGCAUGU
31. B1  0.00018 KA relative to UGCAUGU
